Data reported in PubChem BioAssay AID686978 (National Center for Advancing Translational Sciences (NCATS), 2013).
Out of some 420,000 compounds screened, about 64,000 (15%) were called active. The shares of active, inactive and inconclusive entries below differ from those in the screen. The call rests on the fitted dose curve; in most records, active means well fitted inhibition curve with a large enough effect; inconclusive means small, poorly fitted or top-dose-only effect; inactive means flat fitted curve, though single readings scatter. Potencies of inconclusive entries are left out as doubtful fits.

Experiment: qHTS for Inhibitors of human tyrosyl-DNA phosphodiesterase 1 (TDP1): qHTS in cells in absence of CPT; further: nearly all actives have a fitted effect of over 55% in size
Settings: DT40 Tdp1-/- hTDP1 cells, no CPT, ATP luminescence, 48 h; activity change, negative = growth inhibition: at 46.2 µM (top of the series) unless noted
Method in brief: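 Chicken DT40 Tdp1-/- cells stably complemented with human TDP1 were seeded at 400 cells/well with DMSO in place of 20 nM camptothecin. After compound pinning, cells grew at least 48 hr at 37 °C; viability read by CellTiter-Glo luminescence.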
On the % scale 0 is the no-effect control and ±100 the full control effect; potency means the concentration at half of the fitted maximal effect; tags describe the fitted curve by direction and shape.

Row | Structure (SMILES) | activity change, negative = growth inhibition | Potency
1 | O=C(c1ccco1)N1CCN(Cc2cc(=O)c(OCc3ccccc3F)co2)CC1 | inactive: -4.26% | –
2 | COC(=O)Cn1c(=NC(=O)c2ccc(Cl)s2)sc2cc(C)ccc21 | – | inconclusive [inhibitor, partial curve]
3 | CC(CNC(=O)CCS(=O)(=O)c1cc2c(cc1Cl)NC(=O)CO2)c1ccccc1 (stereo not drawn) | – | inactive
4 | CC(C)COc1ccc(C(=O)Nc2ccc([N+](=O)[O-])cc2)cc1 | inactive: -22% | –
5 | OCCCn1c(C2CCCN2c2nc(-c3ccc(Cl)cc3)cs2)nc2cc(C(F)(F)F)ccc21 (stereo not drawn) | – | inconclusive [inhibitor, single point]
6 | CN1/C(=C\C(=O)c2cccnc2)C(C)(C)c2ccccc21 | – | inconclusive [inhibitor, single point]
7 | CCOc1nc2cccc(C(=O)O)c2n1Cc1ccc(-c2ccccc2-c2nn[nH]n2)cc1 | inactive: 3.36% | –
8 | COc1cc2c(=O)n(C)c3ccccc3c2cc1OC | – | active: 11.6 µM
9 | CCOc1cc(/C=N/NC(=O)CCn2nnc3ccccc32)ccc1O | inactive: -13.4% | –
10 | Cc1ccc(NC(=O)CSc2nc(=O)cc(N)n2CCc2ccccc2)cc1 | – | inconclusive [inhibitor, single point]
11 | N=c1n(CCOc2ccccc2)c2ccccc2n1CCN1CCOCC1 | inactive: -5.18% | –
12 | CCN(CC)S(=O)(=O)c1ccc2oc(SCC(=O)NCc3ccccc3)nc2c1 | – | inconclusive [inhibitor, single point]
13 | COc1cccc(N2C(=O)C(c3ccccc3)=C(c3nc4ccccc4s3)C2NC(C)=O)c1 (stereo not drawn) | – | inconclusive [inhibitor, single point]
14 | CCCCc1nnc(NC(=O)CCS(=O)(=O)c2ccc(C)cc2)s1 | – | inconclusive [inhibitor, single point]
15 | CCCCC(=O)NC(=O)NC(c1ccccc1)c1ccccc1 | – | inconclusive [inhibitor, single point]
16 | COc1ccc(CNc2cc(-c3ccccc3C)ncn2)c(OC)c1 | – | inconclusive [inhibitor, single point]
17 | COc1ccc(CNCC(O)(c2ccc(F)cc2)c2ccc(F)cc2)cc1OC | – | active: 16.4 µM
18 | CC(C)(C)c1nc(SCC(=O)N2CCCC2)c2ccccc2n1 | – | active: 16.4 µM
19 | COc1ccc(CC(=O)Oc2ccccc2C)cc1 | inactive: 5% | –
20 | CCCCCCc1cc2cc(C(=O)NC)c(=N)oc2cc1O | – | active: 20.6 µM
21 | Cc1ccc(OCCn2cc(C=O)c3ccccc32)cc1 | – | inconclusive [inhibitor, partial curve, poor fit]
22 | O=C(Nc1cccc(NC(=O)c2ccccc2Cl)c1)c1cccc(Br)c1 | – | inconclusive [inhibitor, partial curve]
23 | COc1ccc([N+](=O)[O-])cc1NC(=O)C(C)NNC(=O)c1cccc([N+](=O)[O-])c1 (stereo not drawn) | – | inconclusive [inhibitor, full curve]
24 | COc1ccc(CC(=O)Nc2cccc(/C(C)=N/NC(=O)C3(C)CC3(Br)Br)c2)cc1 (stereo not drawn) | – | inconclusive [inhibitor, partial curve, poor fit]
25 | COC(=O)[C@@]12C[C@@H](CC(=O)NCc3cccs3)C(=O)N(Cc3cccc4ccccc34)C1=CCC(C)(C)C2 | – | inconclusive [inhibitor, single point]

Row | Structure (SMILES) | activity change, negative = growth inhibition | Potency
26 | CC(C)c1ccc(OCc2cc(=O)n3c(-c4ccccc4)csc3n2)cc1 | – | active: 25.9 µM
27 | COc1cc(NS(=O)(=O)c2ccc3ccccc3c2)c2ncccc2c1 | – | active: 7.31 µM
28 | CC(C)(C)c1cc(CCC(=O)NNC(=S)NC(=O)c2ccccc2)cc(C(C)(C)C)c1O | – | active: 3.66 µM
29 | Cc1ccc(-n2c(C)cc(/C=C3\NC(=O)NC3=O)c2C)c(C)c1 | – | inconclusive [inhibitor, single point]
30 | Cc1ccc(S(=O)(=O)c2nnn3c2nc(NCc2ccccc2Cl)c2sccc23)cc1 | – | inconclusive [inhibitor, single point]
31 | Clc1ccccc1-c1nc(NCc2cccs2)c2ccccc2n1 | – | inconclusive [inhibitor, single point]
32 | CCCOC(=S)Nc1ccccc1 | inactive: -24.5% | –
33 | CCn1ncc(S(=O)(=O)N2CCN(c3cccc(OC)c3)CC2)c1C | inactive: 5.59% | –
34 | Cc1ccsc1/C=C1\SC(N)=NC1=O | inactive: -2.48% | –
35 | COC(=O)C1(C)CCCC2(C)c3cc(OC)ccc3C(=O)C(Br)C12 (stereo not drawn) | – | active: 6.51 µM
36 | COc1ccc(C(=O)NNC(=S)NC(=O)c2cccs2)cc1 | – | inconclusive [inhibitor, single point]
37 | Cc1cc(N2CCCC2=O)cc(C)c1S(=O)(=O)NCCOc1ccccc1 | – | inconclusive [inhibitor, single point]
38 | Cc1ccc(-c2nnc(OCc3cccnc3)c3ccccc23)cc1 | – | inconclusive [inhibitor, partial curve]
39 | CCCc1c(C(=O)N/N=C/c2ccc(OCc3ccccc3)cc2)nnn1-c1nonc1N | – | inconclusive [inhibitor, single point]
40 | c1cnc2ccc(C(c3nnnn3C3CCCC3)N3CCN(c4nc5ccccc5s4)CC3)cc2c1 (stereo not drawn) | – | inconclusive [inhibitor, single point]
41 | COc1ccc(NC(=O)CCCN2C(=O)COc3ccc(C)cc32)cc1OC | – | inconclusive [inhibitor, single point]
42 | Nc1nc(COC(=O)C2CCN(C(=O)c3ccc(Cl)cc3)CC2)nc(Nc2ccccc2)n1 | inactive: -14.2% | –
43 | COc1ccc(Cl)cc1C(=O)Nc1ccc2c(c1)OCO2 | – | inconclusive [inhibitor, single point]
44 | Cc1cc2oc(C(=O)Nc3ccc(S(=O)(=O)N4CCCC(C)C4)cc3)cc(=O)c2cc1Cl (stereo not drawn) | – | inconclusive [inhibitor, partial curve]
45 | O=C(CN1CCN(S(=O)(=O)c2ccccc2)CC1)Nc1ccnn1C1CCCC1 | – | inconclusive [inhibitor, single point]
46 | COc1ccc(CN(C)C(=O)c2ccc(NS(=O)(=O)c3ccccc3)cc2)c(OC)c1 | – | inconclusive [inhibitor, single point]
47 | O=C(NCc1ccco1)c1cc2c(s1)CSC2 | – | inconclusive [inhibitor, single point]
48 | CCCS(=O)(=O)NC(=O)C1(C)CCN(C(=O)c2ccc3ccccc3n2)C1 (stereo not drawn) | inactive: -12.6% | –
49 | CCOc1ccc(-c2cnc3cccnn23)cc1 | inactive: -21.4% | –
50 | CC(C)(C)OC(=O)N1CCC(c2c(C(=O)N3CCN(C(=O)c4ccco4)CC3)cnn2-c2ccccc2Cl)CC1 | – | inconclusive [inhibitor, single point]

Row | Structure (SMILES) | activity change, negative = growth inhibition | Potency
51 | COc1ccc(Cl)cc1N1C(=O)CN(Cc2cc(OC)c(OC)c(OC)c2)C1=S | – | active: 8.2 µM
52 | Cc1cccc(CC(C)NC(=O)c2cc(COc3ccc(F)cc3F)on2)n1 (stereo not drawn) | – | inconclusive [inhibitor, partial curve]
53 | CNC(=O)C1=C(C)Nc2nc3ccccc3n2C1c1ccc(F)cc1 (stereo not drawn) | – | inconclusive [inhibitor, full curve]
54 | COc1ccccc1NC(=O)O/N=C(\N)c1ccccc1 | – | inconclusive [inhibitor, single point]
55 | Oc1c(Cl)cccc1C=Nc1cc(C(F)(F)F)ccc1N1CCCC1 | – | inconclusive [inhibitor, single point]
56 | CCCCN1CCCC[C@H]1C(=O)Nc1c(C)cccc1C | inactive: -29.3% | –
57 | O=C(Cn1c(=O)n(-c2ccc(Cl)cc2)c(=O)c2c3c(sc21)CCC3)c1ccccc1 | – | inconclusive [inhibitor, partial curve]
58 | CCN(CC(=O)Nc1c(F)cccc1F)C(=O)CCN1C(=O)C2CC=CCC2C1=O (stereo not drawn) | inactive: 8.11% | –
59 | O=C(CNc1ccc(Br)cc1)NC(=O)NC1CCCCC1 | – | inconclusive [inhibitor, single point]
60 | COc1ccc(-n2c(=S)[nH]c3cc(C(=O)N(C)Cc4ccccc4)ccc3c2=O)cc1 | – | inconclusive [inhibitor, partial curve]
61 | CS(=O)(=O)N1CCC(Oc2ccccc2C(=O)N2CCC[C@H]2CO)CC1 | inactive: 28.2% | –
62 | O=C(CN1CCN(CC(=O)Nc2cccc(F)c2)CC1)Nc1ccc(-c2ccccc2)cc1 | inactive: -18% | –
63 | CN1C(=S)SC(C)(C)C1(C)NO (stereo not drawn) | – | inconclusive [inhibitor, single point]
64 | COc1ccccc1/C=C/C=N/n1c(-c2ccc(Cl)cc2Cl)n[nH]c1=S | – | inconclusive [inhibitor, partial curve]
65 | CCOC(=O)C1(CC2CC2)CCN(Cc2ccc(C(=O)OC)cc2)CC1 | – | active: 23.1 µM
66 | CC(C)CCn1c(NCCc2ccccc2)nc2c1c(=O)n(C)c(=O)n2C | – | active: 20.6 µM
67 | CCOC(=O)c1c(NC(=O)CSc2cn(CCNC(=O)c3ccccc3F)c3ccccc23)sc2c1CCCC2 | – | active: 16.4 µM
68 | CC(C)(C)NC(=O)c1oc2ccccc2c1NC(=O)c1ccc(F)cc1 | – | inconclusive [inhibitor, partial curve, poor fit]
69 | COc1ccc(/C=N/Nc2ncnc3sc4c(c23)CCCC4)cc1OC | – | active: 16.4 µM
70 | CCCC(C)(C)C(=O)N1CCC1(C)C(=O)NS(=O)(=O)c1ccccc1Cl (stereo not drawn) | inactive: 24.7% | –
71 | CN(C)CCNc1c2c(nc3ccccc13)CCC2 | – | active: 18.4 µM
72 | COc1cc(-c2c(NC(=O)c3ccco3)oc3ccccc3c2=O)cc(OC)c1OC | inactive: 22.2% | –
73 | O=C(CN1C(=O)C2C3C=CC(C3)C2C1=O)NCC1COc2ccccc2O1 (stereo not drawn) | inactive: 2.38% | –
